# Measurements as given in paper PMC5892938.
# This is one part of the list. The source does not settle which construct or isoform was used.
# Target: GST-SBP-ILF3 (Homo sapiens) (UniProt Q12906)
# Test: targeted RNA Bind-n-Seq
# Conditions: RBNS binding buffer: 25 mM Tris pH 7.5, 150 mM KCl, 3 mM MgCl2, 0.1% Tween, 0.5 mg/mL BSA, 1 mM DTT; 27 nM protein, 750 pM RNA pool; temperature not stated; high values mean tight binding; sequences stand for … in GGGUAAAAGCGAGGUGAA…CGGGACAAGUAUUAUGGG
row,Sequence,binding signal (log2 fold change)
1,UUUUUUUUUUGAGAGCGAAGCGUUCUUCUA [tttttgagapaired],-0.0844
2,GUGGUGUGUGUUGGCCCCUAACACACAUCA [gtspaired],-0.211
3,UUUUUUUUUUGAGAUGGAACCCAUCUCCGG [tttttgagapaired],0.0347
4,UUUUUUUUUUGAGAUCGACACGAUCUCCUA [tttttgagapaired],0.132
5,GGUUGGUGUGUUGGAUUCUAACACAUCAGC [gtspaired],-0.143
6,UUUUUUUUUUGAGAUGGCAACCAUUUCCGG [tttttgagapaired],0.603
7,UUUUUUUUUUGAGACGGUUUCCGUCUCCUG [tttttgagapaired],0.435
8,UUUUUUUUUUGAGAUGGGAUCCGUCUCCAG [tttttgagapaired],0.386
9,UUUUUUUUUUGAGAUGGAUCCCAUUUCCAG [tttttgagapaired],0.302
10,GUUGGUGGUGUUGGACUCUAACACCGCCAG [gtspaired],-0.332
11,UUUUUUUUUUGAGAGGGUGACCCUCUCCAG [tttttgagapaired],0.446
12,UUUUUUUUUUGAGACCGGGGCGGUUUUCUA [tttttgagapaired],0.564
13,GGUUGGUGUGUUGGCCCCUAACACAUCAGC [gtspaired],-0.0342
14,UUUUUUUUUUGAGAUCGUCACGAUCUCCAG [tttttgagapaired],0.159
15,GUGUGUGGUGUUGGCGUCUAACACCGCACA [gtspaired],-0.353
16,UUUUUUUUUUGAGAUGGUGGCCAUCUCCGG [tttttgagapaired],0.693
17,UUUUUUUUUUGAGAUGGGUCCCAUCUCCUG [tttttgagapaired],0.984
18,UUUUUUUUUUGAGACGGAUACCGUUUCCAG [tttttgagapaired],0.435
19,UUUUUUUUUUGAGAGGGGUGCCCUUUCCAG [tttttgagapaired],0.657
20,GGUGGUGGUGUUGGUCUCUAACACCGCUAC [gtspaired],-0.403
21,UUUUUUUUUUGAGACUGGGGCAGUCUUCUA [tttttgagapaired],0.658
22,GUUGGUGGUGUUGGCCCCUAACACCGCCGA [gtspaired],-0.0133
23,UUUUUUUUUUGAGAUGGGAUCCAUCUCCAG [tttttgagapaired],-0.0306
24,GGUUGUGGUGUUGGAAUCUAACACCGCAGC [gtspaired],-0.687
25,UUUUUUUUUUGAGAGUGAAGCACUCUCCAG [tttttgagapaired],0.145
26,UUUUUUUUUUGAGAGCGUAUCGUUCUCCGG [tttttgagapaired],0.149

row,Sequence,binding signal (log2 fold change)
1,UUUUUUUUUUGAGAGGGAGACCCUCUCCUG [tttttgagapaired],0.393
2,UUUUUUUUUUGAGAGCGUUCCGCUCUUCUA [tttttgagapaired],0.655
3,UUUUUUUUUUGAGACGGGGGCCGUCUCCUA [tttttgagapaired],0.772
4,GUGUGGUGUGUUGGCGUCUAACACAUCGCG [gtspaired],-0.75
5,UUUUUUUUUUGAGAGGGAAACCCUCUCCUA [tttttgagapaired],0.409
6,UUUUUUUUUUGAGACUGACACAGUUUCCAG [tttttgagapaired],0.163
7,GUGGUGUGUGUUGGAACCUAACACAUACCG [gtspaired],-0.731
8,UUUUUUUUUUGAGACUGAGUCAGUUUCCUG [tttttgagapaired],0.652
9,UUUUUUUUUUGAGACGGAUUCCGUUUCCUA [tttttgagapaired],0.0924
10,GUGUGUUGUGUUGGUCUCUAACACAGCGCA [gtspaired],-0.684
11,UUUUUUUUUUGAGACGGAUGCCGUUUCCUA [tttttgagapaired],0.492
12,UUUUUUUUUUGAGAGUGUUGCAUUCUCCGG [tttttgagapaired],0.256
13,UUUUUUUUUUGAGAGGGGUCCCCUCUUCUA [tttttgagapaired],0.757
14,GGUGGUGGUGUUGGCUUCUAACACCAUCGC [gtspaired],-0.921
15,UUUUUUUUUUGAGAUCGAGGCGAUCUCCAG [tttttgagapaired],0.34
16,UUUUUUUUUUGAGAGCGGCACGCUCUUCUA [tttttgagapaired],-0.3
17,GUGUGGUGUGUUGGAGCCUAACACACUACA [gtspaired],-0.395
18,GUGUUGUGUGUUGGAACCUAACACACAGCG [gtspaired],-0.54
19,UUUUUUUUUUGAGAGCGAUGCGCUCUUCUA [tttttgagapaired],0.227
20,UUUUUUUUUUGAGACCGAGACGGUCUUCUG [tttttgagapaired],0.678
21,GUUGGUGGUGUUGGUUCCUAACACCAUCAA [gtspaired],-0.508
22,UUUUUUUUUUGAGAUGGAGCCCAUCUCCGG [tttttgagapaired],0.318
23,UUUUUUUUUUGAGAUGGGGUCCGUCUUCUA [tttttgagapaired],0.814
24,UUUUUUUUUUGAGAGGGCAACCCUCUCCUA [tttttgagapaired],0.203
25,GUGGUGUGUGUUGGAUUCUAACACACAUCG [gtspaired],-0.888
26,UUUUUUUUUUGAGAUGGAUACCAUCUCCAG [tttttgagapaired],0.00881

row,Sequence,binding signal (log2 fold change)
1,GUGUGGUGUGUUGGAUUCUAACACAUCGCA [gtspaired],-0.774
2,GUGUGUGGUGUUGGUGCCUAACACCGCGCA [gtspaired],-0.735
3,UUUUUUUUUUGAGAUGGAUACCAUUUCCAG [tttttgagapaired],0.199
4,GUGUGUGGUGUUGGUCUCUAACACCACAUA [gtspaired],-0.322
5,UUUUUUUUUUGAGAUCGAUACGAUCUUCUG [tttttgagapaired],0.35
6,UUUUUUUUUUGAGACGGAUUCUGUCUCCGG [tttttgagapaired],0.178
7,GUUGUGUGUGUUGGCGUCUAACACACACGA [gtspaired],-0.484
8,GUGUGUUGUGUUGGACCCUAACACAGCGCG [gtspaired],-0.503
9,GUGGUUGGUGUUGGUGUCUAACACCGACCG [gtspaired],-0.506
10,UUUUUUUUUUGAGACGGCAGCCGUCUCCUA [tttttgagapaired],0.715
11,UUUUUUUUUUGAGAGCGGGUCGCUCUCCUG [tttttgagapaired],0.404
12,UUUUUUUUUUGAGACCGCUCCGGUCUCCGG [tttttgagapaired],0.556
13,UUUUUUUUUUGAGAGGGUGACCCUCUCCUG [tttttgagapaired],0.327
14,GUGUGUUGUGUUGGUCUCUAACACAGCACG [gtspaired],-0.772
15,UUUUUUUUUUGAGACGGGAGCUGUCUCCAG [tttttgagapaired],0.961
16,UUUUUUUUUUGAGAUGGGUACUAUCUCCGG [tttttgagapaired],0.587
17,UUCUCUCCUCCUCCGCUGGAGGGGGAGGGA [ctspaired],-0.524
18,UUUUUUUUUUGAGACGGUCUCUGUCUCCAG [tttttgagapaired],0.912
19,UUUUUUUUUUGAGACGGUCUCCGUCUUCUA [tttttgagapaired],0.575
20,GUGUGGUGUGUUGGAUCCUAACACACCGCG [gtspaired],-0.723
21,GGUUGGUGUGUUGGCCUCUAACACAUCAGC [gtspaired],-0.501
22,GUGUGGUGUGUUGGUCUCUAACACAUCACA [gtspaired],-0.925
23,UUUUUUUUUUGAGAACGAGACGUUCUCCGG [tttttgagapaired],-0.0305
24,UUUUUUUUUUGAGACGGCAACCGUCUCCUG [tttttgagapaired],0.54
25,UUUUUUUUUUGAGACUGAGACAGUCUUCUG [tttttgagapaired],0.389
26,UUUUUUUUUUGAGACGGUAACCGUCUCCGG [tttttgagapaired],0.461

row,Sequence,binding signal (log2 fold change)
1,UUUUUUUUUUGAGAUGGGCGCCAUCUCCUA [tttttgagapaired],0.467
2,GUGUGUUGUGUUGGACCCUAACACAACGCG [gtspaired],-0.331
3,UUUUUUUUUUGAGAUGGGUGCCAUCUCCUG [tttttgagapaired],0.419
4,GUGUGUGGUGUUGGAUCCUAACACCGCGCG [gtspaired],-0.478
5,UUUUUUUUUUGAGAAGGUGUCCUUCUCCAG [tttttgagapaired],0.502
6,UUUUUUUUUUGAGAUGGUUCCCAUCUCCUG [tttttgagapaired],0.176
7,UUUUUUUUUUGAGACCGUAACGGUCUCCGG [tttttgagapaired],0.471
8,GGUGUGUGUGUUGGUCCCUAACACACAUAC [gtspaired],-0.11
9,GGUUGUGGUGUUGGCCUCUAACACCGCGAC [gtspaired],-0.709
10,UUUUUUUUUUGAGAGGGAAACCCUCUUCUG [tttttgagapaired],0.0767
11,UUUUUUUUUUGAGAGCGGGGCGCUCUUCUA [tttttgagapaired],0.545
12,UUUUUUUUUUGAGAGCGAGGCGCUCUCCAG [tttttgagapaired],0.235
13,UUUUUUUUUUGAGAGCGGCACGCUCUCCGG [tttttgagapaired],-0.254
14,GUGGUGUGUGUUGGCUUCUAACACACGCCG [gtspaired],-0.816
15,GUGUGUGGUGUUGGUAUCUAACACCGCAUA [gtspaired],-0.515
16,UUUUUUUUUUGAGAUGGCUACCAUCUCCGG [tttttgagapaired],0.408
17,UUUUUUUUUUGAGAACGUAACGUUCUCCGG [tttttgagapaired],0.122
18,UUUUUUUUUUGAGAUGGAAACUAUCUCCGG [tttttgagapaired],0.126
19,GUGUGUGGUGUUGGCGCCUAACACCAUACA [gtspaired],-0.439
20,UUUUUUUUUUGAGAACGUAGCGUUCUCCUA [tttttgagapaired],0.209
21,UUUUUUUUUUGAGAGCGUUGCGCUCUUCUA [tttttgagapaired],0.432
22,GUGUGGUGUGUUGGUCUCUAACACACUAUA [gtspaired],-0.597
23,GUGUGGUGUGUUGGUAUCUAACACAUCGCG [gtspaired],-0.623
24,UUUUUUUUUUGAGAAGGAGUCCUUCUCCAG [tttttgagapaired],-0.0166
25,UUUUUUUUUUGAGAGGGCGGCCCUUUCCAG [tttttgagapaired],0.669
